About 6,400 (1.6%) of roughly 410,000 compounds were called active. The inconclusive results got no clear call from the source; some entries with a clear call stand among them for comparison. Calls come from the whole dose curve; as a rule, active = well fitted inhibition curve with a large enough effect; inconclusive = small, poorly fitted or top-dose-only effect; inactive = no such curve, though single readings can be large or run the other way. No potency is given beside an inconclusive call; the fits are too rough.
What follows are compounds tested against Glucagon-like peptide 1 receptor (Homo sapiens) (UniProt P43220) (assay: qHTS of GLP-1 Receptor Inverse Agonists (Inhibition Mode)). Details: HEK293 GLP-1R CRE-luciferase, luminescence, 24 h, GLP-1R form is constitutively active; activity change, negative = inhibition: at 38.3 µM (top of the series) unless noted.
How it was run: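 Inverse agonists were sought by their lowering of basal cAMP reporter luciferase output in HEK293 cells stably carrying constitutively active human GLP-1R, after 24 h compound treatment.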
% is set by controls: 0 for no effect and ±100 for the full control effect; potency is the fitted concentration of half-maximal effect; tags give direction and shape of the fitted curve.
Note: nearly all actives have a fitted effect of over 55% in size.

Chain of UniProt P43220 (P43220 whole entry, looked up): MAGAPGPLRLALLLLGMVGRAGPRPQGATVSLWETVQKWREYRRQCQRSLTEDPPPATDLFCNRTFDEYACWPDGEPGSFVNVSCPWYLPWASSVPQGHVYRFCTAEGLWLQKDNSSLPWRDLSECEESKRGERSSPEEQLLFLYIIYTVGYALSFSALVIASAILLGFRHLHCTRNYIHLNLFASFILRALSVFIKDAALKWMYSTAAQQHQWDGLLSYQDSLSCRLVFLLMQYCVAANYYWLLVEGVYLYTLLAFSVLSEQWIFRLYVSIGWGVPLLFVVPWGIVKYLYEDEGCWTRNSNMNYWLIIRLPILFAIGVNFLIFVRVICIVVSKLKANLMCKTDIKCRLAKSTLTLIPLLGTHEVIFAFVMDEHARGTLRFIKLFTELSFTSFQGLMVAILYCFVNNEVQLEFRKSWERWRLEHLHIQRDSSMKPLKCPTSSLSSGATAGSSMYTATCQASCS

| SMILES | Potency | activity change, negative = inhibition |
| --- | --- | --- |
| Cc1ncc(CN2CCCC(CCC(=O)NCc3ccccc3F)C2)s1 (stereo not given) | inconclusive [inhibitor, full curve, poor fit] |  |
| NS(=O)(=O)c1cc(C(=O)NC2CCSc3ccccc32)ccc1Cl (stereo not given) |  | inactive: 10% |
| CCOc1ccc(NC(=O)C2CCN(C(=O)N3CC(C)Oc4ccc(Cl)cc43)CC2)cc1 (stereo not given) |  | inactive: 2.8% |
| COc1ccc(-c2cnn3c(N)c(S(=O)(=O)C(C)(C)C)cnc23)cc1 |  | inactive: -5.04% |
| Cc1ccc(-n2cnc3scc(-c4cccs4)c3c2=O)cc1 | active: 10 µM |  |
| COc1ccccc1NC(=O)CNC(=O)Cn1cnc2sc(C)c(C)c2c1=O | inconclusive [inhibitor, full curve, poor fit] |  |
| CC(C)C(=O)Nc1ccc(COc2ccccc2CN(Cc2ccccc2)C(=O)OC(C)(C)C)cc1 | inconclusive [inhibitor, partial curve, poor fit] |  |
| S=C1SCN(CCc2ccccc2)CN1CCc1ccccc1 | inconclusive [inhibitor, partial curve, poor fit] |  |
| Cc1cc(C)c(S(=O)(=O)NCCn2ccc3ccccc32)c(C)c1 | inconclusive [inhibitor, single point] |  |
| CS(=O)(=O)Nc1cccc(-c2cc(NC=O)c3ncc(-c4ccc(F)c(Cl)c4)n3c2)c1 | inconclusive [inhibitor, single point] |  |
| O=C(/C=C/NNC(=O)c1ccccc1)c1ccc([N+](=O)[O-])cc1 | inconclusive [inhibitor, partial curve, poor fit] |  |
| CCCCCCCCN1C(=O)[C@H](CC(=O)NCCCOC)C[C@@]2(C(=O)OC)CCCCC=C12 | inconclusive [inhibitor, single point] |  |
| COc1ccccc1Oc1coc2c(CN3CCOCC3)c(O)ccc2c1=O |  | inactive: 6.17% |
| COc1ccc(C(C)(O)c2nc(-c3ccc4ccccc4c3)cs2)cc1 (stereo not given) | inconclusive [inhibitor, partial curve, poor fit] |  |
| Cc1ccc(N/C=C/C(=O)c2cccs2)cc1C | inconclusive [inhibitor, single point] |  |
| O=c1cc(CN2CCN(c3ccccc3)CC2)c2cc(O)c(-c3ccccc3)cc2o1 |  | inactive: -31.8% |
| COc1ccc(/C=C/C(=O)N2CCN(c3ccccn3)CC2)c2ccccc12 | inconclusive [inhibitor, single point] |  |
| O=c1c2ccccc2c(-c2ccccc2)nn1-c1ccccc1 | inconclusive [inhibitor, single point] |  |
| N#Cc1ccc(S(=O)(=O)N2CCC(C(=O)N3CCN(Cc4ccc5c(c4)OCO5)CC3)CC2)cc1 | inconclusive [inhibitor, partial curve, poor fit] |  |
| CCCCN(C(=O)c1ccc(-c2ccc([N+](=O)[O-])cc2)o1)c1c(N)n(CCCC)c(=O)[nH]c1=O | inconclusive [inhibitor, single point] |  |

| SMILES | Potency | activity change, negative = inhibition |
| --- | --- | --- |
| CCc1ccc(C(O)(C(C)C)C(CN2CCOCC2)c2ccccc2)cc1 (stereo not given) | inconclusive [inhibitor, partial curve, poor fit] |  |
| O=C(COC(=O)c1cc(S(=O)(=O)N2CCCCC2)ccc1N1CCOCC1)c1ccccc1Cl | inconclusive [inhibitor, single point] |  |
| CC(C)Oc1cccc(-c2nnc(SCC(=O)Nc3ccc4c(c3)OCCO4)n2N)c1 |  | inactive: 0% |
| CCCOc1ccc(C(O)C(CN2CCOCC2)c2ccccc2)cc1 (stereo not given) | inconclusive [inhibitor, full curve] |  |
| Cn1cc(CC(=O)N2CCN(c3ccccc3F)CC2)c2ccccc21 | inconclusive [inhibitor, partial curve, poor fit] |  |
| COc1ccc(NC(=O)c2csc3c2CCCCC3)c(OC)c1 | inconclusive [inhibitor, partial curve, poor fit] |  |
| NC(=S)N/N=C1\CC(n2nnn(-c3cccc(Cl)c3)c2=S)C2COC1O2 (stereo not given) | inconclusive [inhibitor, single point] |  |
| Cc1ccc(COC(=O)c2cccc(S(=O)(=O)N3CCCCC3)c2)cc1 | inconclusive [inhibitor, single point] |  |
| COc1ccc(CC(N)c2csc(NC(=O)NCc3ccccc3)n2)cc1 (stereo not given) | inconclusive [inhibitor, single point] |  |
| Cc1cc(NC(=O)c2cc(-c3cccc(Cl)c3)on2)n(-c2ccccc2)n1 | inconclusive [inhibitor, single point] |  |
| Cc1ccccc1OCCn1c(=N)n(C(C)C)c2ccccc21 |  | inactive: -27.2% |
| Cc1ccc(OCC(=O)NC2CCCc3ccccc32)c(C)c1 (stereo not given) | inconclusive [inhibitor, single point] |  |
| NNc1nccc(Nc2ccccc2C(=O)O)n1 | inconclusive [inhibitor, single point] |  |
| Cc1ccccc1-c1csc(C(O)c2ccccc2)n1 (stereo not given) | inconclusive [inhibitor, single point] |  |
| COc1ccc(-c2[nH]c(-c3ccc(C)cc3)nc2SCC(=O)NCC2CCCO2)cc1 (stereo not given) | inconclusive [inhibitor, partial curve, poor fit] |  |
| CCn1cnc2c1c(=O)n(CC(=O)Nc1ccc3c(c1)OC(F)(F)O3)c(=O)n2Cc1ccccc1 | inconclusive [inhibitor, single point] |  |
| COC(=O)c1cc(OC)c(OC)cc1NCC(=O)Nc1cccc(C(F)(F)F)c1 | inconclusive [inhibitor, single point] |  |
| COc1cccc(C(NC(C)=O)c2nc(-c3cc4ccccc4o3)cs2)c1 (stereo not given) | inconclusive [inhibitor, single point] |  |
| COc1ccccc1CNCC(O)Cn1c2ccccc2c2ccccc21 (stereo not given) | inconclusive [inhibitor, partial curve, poor fit] |  |
| O=C(NCCc1ccc(C(F)(F)F)cc1)C1CC(=O)N(c2ccc3c(c2)OCCO3)C1 (stereo not given) | inconclusive [inhibitor, single point] |  |

Reference: PubChem BioAssay AID624417 (National Center for Advancing Translational Sciences (NCATS), 2012)
